These results are taken from paper PMC10415138.

Amino acid sequences for entries named in this document (tags omitted).
UniProt Q9NRN9: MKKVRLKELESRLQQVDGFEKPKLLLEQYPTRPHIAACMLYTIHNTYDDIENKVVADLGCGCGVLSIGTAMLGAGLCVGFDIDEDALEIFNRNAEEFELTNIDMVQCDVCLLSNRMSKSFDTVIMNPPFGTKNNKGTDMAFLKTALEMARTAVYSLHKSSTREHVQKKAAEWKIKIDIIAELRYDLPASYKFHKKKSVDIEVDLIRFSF

Results are given in words; binding and its absence hold for the method and conditions named. For part of these data: In cells and extracts the contact can be indirect. Some results given as binding are weak or reduced against the parent protein; the word gives no strength. For part of these data: Where a sequence is shown, tags or fusion partners need not be part of it.

Experiment [1] concerns the target T1, TRMT112-WT-BirA*-HA (human) (UniProt Q9UI30).
T1 sequence: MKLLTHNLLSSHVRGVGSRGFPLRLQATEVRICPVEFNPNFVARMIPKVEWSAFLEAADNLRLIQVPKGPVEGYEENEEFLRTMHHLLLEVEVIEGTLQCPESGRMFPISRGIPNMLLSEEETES
The experiment in a line: co-IP; co-IP of TRMT112 WT or T5R with METTL5 (Supplementary Figure S1A); bait, tags and beads not shown.

For experiment [2], the target named is T2, TRMT112-T5R-BirA*-HA (human) (UniProt Q9UI30).
T2 sequence: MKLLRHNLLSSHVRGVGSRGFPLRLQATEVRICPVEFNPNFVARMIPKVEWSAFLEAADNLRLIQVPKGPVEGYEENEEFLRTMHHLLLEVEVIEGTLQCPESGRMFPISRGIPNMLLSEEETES
As to the kind of experiment: co-IP; HEK293T cells expressing TRMT112-WT-BirA*-HA, TRMT112-T5R-BirA*-HA or BirA*-HA without biotin; anti-HA beads; with or without benzonase; western blot of the MTases. A general note: A western blot detects proteins with antibodies after separation by electrophoresis.

Experiment [3] concerns the target T1, TRMT112-WT-BirA*-HA (human). Described as above.
Experiment [4] addresses T3, 3 × Flag-THUMPD2 (human) (UniProt Q9BTF0).
T3 sequence: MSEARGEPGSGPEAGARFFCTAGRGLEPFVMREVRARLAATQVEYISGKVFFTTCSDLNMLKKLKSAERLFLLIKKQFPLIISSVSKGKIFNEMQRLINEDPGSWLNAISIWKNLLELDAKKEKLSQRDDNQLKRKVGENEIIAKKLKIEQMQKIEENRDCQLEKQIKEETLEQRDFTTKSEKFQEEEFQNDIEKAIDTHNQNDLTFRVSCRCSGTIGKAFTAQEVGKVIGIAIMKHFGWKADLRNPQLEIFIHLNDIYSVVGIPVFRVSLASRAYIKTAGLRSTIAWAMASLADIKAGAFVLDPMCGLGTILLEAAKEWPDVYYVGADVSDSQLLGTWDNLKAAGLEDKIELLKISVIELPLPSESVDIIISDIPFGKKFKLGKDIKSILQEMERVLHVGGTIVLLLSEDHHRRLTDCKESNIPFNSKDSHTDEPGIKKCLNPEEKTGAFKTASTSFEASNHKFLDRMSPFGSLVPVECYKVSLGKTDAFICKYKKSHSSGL
The experiment in a line: co-IP; reverse co-IP with 3 × Flag-THUMPD2 or -THUMPD3 as bait; TRMT112 detected in the IP fractions (Supplementary Figure S1C).

Experiment [5] addresses T4, 3 × Flag-THUMPD3 (human) (UniProt Q9BV44).
T4 sequence: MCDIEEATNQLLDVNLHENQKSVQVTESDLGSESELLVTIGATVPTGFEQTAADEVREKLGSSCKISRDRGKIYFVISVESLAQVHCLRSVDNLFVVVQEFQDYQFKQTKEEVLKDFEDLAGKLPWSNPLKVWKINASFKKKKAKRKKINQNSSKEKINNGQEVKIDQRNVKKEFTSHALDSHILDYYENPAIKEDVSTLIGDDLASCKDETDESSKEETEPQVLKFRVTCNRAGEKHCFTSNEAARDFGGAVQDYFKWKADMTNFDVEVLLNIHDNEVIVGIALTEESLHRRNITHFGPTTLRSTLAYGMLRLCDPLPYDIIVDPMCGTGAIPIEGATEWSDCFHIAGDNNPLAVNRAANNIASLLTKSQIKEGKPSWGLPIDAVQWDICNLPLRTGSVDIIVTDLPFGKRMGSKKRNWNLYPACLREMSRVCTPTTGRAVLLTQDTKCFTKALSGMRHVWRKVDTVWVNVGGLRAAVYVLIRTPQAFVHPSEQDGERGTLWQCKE
The experiment is described as above.

For experiment [6], the target named is T5, TRMT11 (recombinant, C-terminally His6 tagged) (human) (UniProt Q7Z4G4).
T5 sequence: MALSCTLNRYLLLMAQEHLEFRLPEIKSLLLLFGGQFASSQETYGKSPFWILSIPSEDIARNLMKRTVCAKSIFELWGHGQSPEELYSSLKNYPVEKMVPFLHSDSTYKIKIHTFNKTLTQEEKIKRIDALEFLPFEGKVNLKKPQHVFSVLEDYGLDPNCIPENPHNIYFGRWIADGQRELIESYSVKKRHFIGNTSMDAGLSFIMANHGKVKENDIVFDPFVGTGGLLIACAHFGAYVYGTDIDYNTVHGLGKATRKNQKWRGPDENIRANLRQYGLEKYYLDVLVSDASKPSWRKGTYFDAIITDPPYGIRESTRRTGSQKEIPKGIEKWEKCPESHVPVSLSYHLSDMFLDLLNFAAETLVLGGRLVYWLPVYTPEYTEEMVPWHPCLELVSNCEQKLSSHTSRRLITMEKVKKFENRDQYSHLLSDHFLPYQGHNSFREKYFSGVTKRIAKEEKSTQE
As to the kind of experiment: SEC-MALS; complexes co-expressed in E. coli and co-purified by the His tag of the MTase, ion exchange and SEC; 100 ul at 1 mg/ml on Superdex 200 Increase 10/300 GL; both purified.

In experiment [7] the target is T6, THUMPD3 (recombinant, of the human THUMPD3-TRMT112 complex) (human) (UniProt Q9BV44).
T6 sequence: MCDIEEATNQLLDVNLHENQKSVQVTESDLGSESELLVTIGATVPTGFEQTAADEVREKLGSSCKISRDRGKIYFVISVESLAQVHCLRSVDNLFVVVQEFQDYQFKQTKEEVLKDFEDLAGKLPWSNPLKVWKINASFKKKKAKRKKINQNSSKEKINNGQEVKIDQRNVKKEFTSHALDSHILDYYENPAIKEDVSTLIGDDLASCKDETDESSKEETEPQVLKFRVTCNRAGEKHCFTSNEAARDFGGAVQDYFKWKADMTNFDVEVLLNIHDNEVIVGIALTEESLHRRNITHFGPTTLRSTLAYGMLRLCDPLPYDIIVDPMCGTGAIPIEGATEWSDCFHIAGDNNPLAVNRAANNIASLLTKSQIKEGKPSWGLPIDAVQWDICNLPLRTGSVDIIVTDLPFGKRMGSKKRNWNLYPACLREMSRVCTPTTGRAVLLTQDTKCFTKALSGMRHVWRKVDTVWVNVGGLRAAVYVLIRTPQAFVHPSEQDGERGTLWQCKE
The experiment is described as above.

The target of experiment [8] is T7, BtTHUMPD2 (Bos taurus) (UniProt E1B8U2).
T7 sequence: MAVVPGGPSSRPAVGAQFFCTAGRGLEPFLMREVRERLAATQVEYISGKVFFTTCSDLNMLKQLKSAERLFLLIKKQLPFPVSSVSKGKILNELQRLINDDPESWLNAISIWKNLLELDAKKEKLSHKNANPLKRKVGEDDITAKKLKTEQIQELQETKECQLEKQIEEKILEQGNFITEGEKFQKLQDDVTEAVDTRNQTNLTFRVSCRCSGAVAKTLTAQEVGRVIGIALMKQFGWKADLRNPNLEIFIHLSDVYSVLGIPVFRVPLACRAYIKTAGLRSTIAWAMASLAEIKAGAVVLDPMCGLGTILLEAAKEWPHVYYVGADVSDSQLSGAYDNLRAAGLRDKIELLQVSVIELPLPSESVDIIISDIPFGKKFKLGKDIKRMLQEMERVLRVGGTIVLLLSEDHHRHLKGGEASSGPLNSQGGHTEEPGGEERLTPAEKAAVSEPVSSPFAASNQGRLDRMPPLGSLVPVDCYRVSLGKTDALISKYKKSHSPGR
The description is as above.

“METTL5 (from UniProt Q9NRN9 1-209) (enzyme)”: in experiment [1], the binding result was “binds”.

B1: TRMT11 (enzyme, UniProt Q7Z4G4 1-463)
chain: MALSCTLNRYLLLMAQEHLEFRLPEIKSLLLLFGGQFASSQETYGKSPFWILSIPSEDIARNLMKRTVCAKSIFELWGHGQSPEELYSSLKNYPVEKMVPFLHSDSTYKIKIHTFNKTLTQEEKIKRIDALEFLPFEGKVNLKKPQHVFSVLEDYGLDPNCIPENPHNIYFGRWIADGQRELIESYSVKKRHFIGNTSMDAGLSFIMANHGKVKENDIVFDPFVGTGGLLIACAHFGAYVYGTDIDYNTVHGLGKATRKNQKWRGPDENIRANLRQYGLEKYYLDVLVSDASKPSWRKGTYFDAIITDPPYGIRESTRRTGSQKEIPKGIEKWEKCPESHVPVSLSYHLSDMFLDLLNFAAETLVLGGRLVYWLPVYTPEYTEEMVPWHPCLELVSNCEQKLSSHTSRRLITMEKVKKFENRDQYSHLLSDHFLPYQGHNSFREKYFSGVTKRIAKEEKSTQE
Consider B1, for which the binding result in experiment [2] is given as “no binding”; in experiment [3], “binds”.

B2: TRMT112 (protein, UniProt Q9UI30 1-125)
chain: MKLLTHNLLSSHVRGVGSRGFPLRLQATEVRICPVEFNPNFVARMIPKVEWSAFLEAADNLRLIQVPKGPVEGYEENEEFLRTMHHLLLEVEVIEGTLQCPESGRMFPISRGIPNMLLSEEETES
B2: the binding entry in experiment [4] and in experiment [5] was “binds” throughout.

B3: TRMT112 (recombinant, untagged) (protein, UniProt Q9UI30 1-125)
chain: MKLLTHNLLSSHVRGVGSRGFPLRLQATEVRICPVEFNPNFVARMIPKVEWSAFLEAADNLRLIQVPKGPVEGYEENEEFLRTMHHLLLEVEVIEGTLQCPESGRMFPISRGIPNMLLSEEETES
Take B3: the binding entry in experiment [6] and in experiment [7] was “binds” each time.

B4: THUMPD2 (enzyme, UniProt Q9BTF0 1-503)
chain: MSEARGEPGSGPEAGARFFCTAGRGLEPFVMREVRARLAATQVEYISGKVFFTTCSDLNMLKKLKSAERLFLLIKKQFPLIISSVSKGKIFNEMQRLINEDPGSWLNAISIWKNLLELDAKKEKLSQRDDNQLKRKVGENEIIAKKLKIEQMQKIEENRDCQLEKQIKEETLEQRDFTTKSEKFQEEEFQNDIEKAIDTHNQNDLTFRVSCRCSGTIGKAFTAQEVGKVIGIAIMKHFGWKADLRNPQLEIFIHLNDIYSVVGIPVFRVSLASRAYIKTAGLRSTIAWAMASLADIKAGAFVLDPMCGLGTILLEAAKEWPDVYYVGADVSDSQLLGTWDNLKAAGLEDKIELLKISVIELPLPSESVDIIISDIPFGKKFKLGKDIKSILQEMERVLHVGGTIVLLLSEDHHRRLTDCKESNIPFNSKDSHTDEPGIKKCLNPEEKTGAFKTASTSFEASNHKFLDRMSPFGSLVPVECYKVSLGKTDAFICKYKKSHSSGL
Take B4: the binding entry in experiment [2] is listed as “no binding”; in experiment [3], “binds”.

B5: THUMPD3 (enzyme, UniProt Q9BV44 1-507)
chain: MCDIEEATNQLLDVNLHENQKSVQVTESDLGSESELLVTIGATVPTGFEQTAADEVREKLGSSCKISRDRGKIYFVISVESLAQVHCLRSVDNLFVVVQEFQDYQFKQTKEEVLKDFEDLAGKLPWSNPLKVWKINASFKKKKAKRKKINQNSSKEKINNGQEVKIDQRNVKKEFTSHALDSHILDYYENPAIKEDVSTLIGDDLASCKDETDESSKEETEPQVLKFRVTCNRAGEKHCFTSNEAARDFGGAVQDYFKWKADMTNFDVEVLLNIHDNEVIVGIALTEESLHRRNITHFGPTTLRSTLAYGMLRLCDPLPYDIIVDPMCGTGAIPIEGATEWSDCFHIAGDNNPLAVNRAANNIASLLTKSQIKEGKPSWGLPIDAVQWDICNLPLRTGSVDIIVTDLPFGKRMGSKKRNWNLYPACLREMSRVCTPTTGRAVLLTQDTKCFTKALSGMRHVWRKVDTVWVNVGGLRAAVYVLIRTPQAFVHPSEQDGERGTLWQCKE
Turning to B5, the binding entry in experiment [2] is on record as “no binding”; in experiment [3], “binds”.

B6: BtTRMT112 (protein, UniProt Q2KIA2 1-125)
chain: MRLLTHNLLSSHVRGVGPRGFPLRLQATEVRINPVEFNPDFIVRMIPKVEWAALLEAADHLHLIQVPKEPIQGYEHNEEFLRKMHHVLLEVEVLEGTLQCPESGRVFPISRGIPNMLLSDEETET
Consider B6, for which, in experiment [8], the binding result is given as “binds”.
